# Source: PMC6919601, “Identification of Plasmodium dipeptidyl aminopeptidase allosteric inhibitors by high throughput screening” (PLoS ONE, 2019)
# Out of some 110,000 compounds screened, about 230 (0.21%) showed an effect of 50% or more. The list shows a part of the results.
# Biological target: DPAP1 (Plasmodium falciparum, UniProt Q8IIJ9)
# Test: primary screen, percent inhibition; read by cleavage of a fluorogenic dipeptide substrate; higher = more effect of the substance
# Set-up: species or system P. falciparum D10 trophozoite lysates; single well
# 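Note: 30 min substrate incubation versus DMSO and 10 µM JCP410 controls.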
# Sequence of DPAP1 (Q8IIJ9 whole entry, looked up): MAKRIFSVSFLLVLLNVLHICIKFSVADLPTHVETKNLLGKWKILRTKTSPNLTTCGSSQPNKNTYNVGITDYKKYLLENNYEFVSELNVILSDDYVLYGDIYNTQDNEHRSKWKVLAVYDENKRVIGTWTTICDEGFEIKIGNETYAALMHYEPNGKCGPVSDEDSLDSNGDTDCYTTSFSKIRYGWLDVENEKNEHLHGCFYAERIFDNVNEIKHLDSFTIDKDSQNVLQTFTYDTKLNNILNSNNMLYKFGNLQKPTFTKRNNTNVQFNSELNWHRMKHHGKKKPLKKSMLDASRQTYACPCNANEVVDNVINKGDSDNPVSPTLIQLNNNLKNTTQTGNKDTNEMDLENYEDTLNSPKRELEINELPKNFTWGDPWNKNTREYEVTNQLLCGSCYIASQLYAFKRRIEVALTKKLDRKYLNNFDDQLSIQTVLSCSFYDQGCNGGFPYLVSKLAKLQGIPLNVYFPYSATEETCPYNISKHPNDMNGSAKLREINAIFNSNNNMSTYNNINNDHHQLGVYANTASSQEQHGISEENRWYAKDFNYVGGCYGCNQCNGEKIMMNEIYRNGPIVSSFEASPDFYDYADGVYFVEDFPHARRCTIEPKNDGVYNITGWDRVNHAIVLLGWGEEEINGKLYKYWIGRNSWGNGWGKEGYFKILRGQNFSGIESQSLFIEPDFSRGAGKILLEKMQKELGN
row,SMILES,% Inhibition @ 10 uM
1,Cc1ccc(OCCCCCN2CCNCC2)cc1,-0.473%
2,CCOc1ccc(C=C2C(=O)NC(=S)NC2=O)c(OCC)c1,1.29%
3,COC(=O)C1=C(C)N(CC2CCCO2)C(=O)/C1=C\c1cc(OC)c(OC)c(OC)c1 (stereo not shown),0.147%
4,Cc1cc(C)n(C(=O)c2cc(-c3ccc(C)o3)nc3ccccc23)n1,-1.1%
5,C=CCSC1=C(C#N)C(c2ccccc2Cl)CC(=O)N1 (stereo not shown),0.673%
6,CN1CCC(N2C[C@@H]3C[C@H](C2)c2cccc(=O)n2C3)CC1,-0.711%
7,CC(C(=O)O)N1C(=O)CSc2ncccc21 (stereo not shown),0.0882%
8,O=Cc1c[nH]c2ccc(S(=O)(=O)N3CCCCC3)cc12,-7.36%
9,CC1CCc2c(sc(NC(=O)c3cccc(S(=O)(=O)NCc4ccccc4)c3)c2C#N)C1 (stereo not shown),-4.35%
10,Cc1cccc(-n2nnc(-c3nc(-c4cccnc4)no3)c2N)c1C,-1.87%
11,CCOC(=O)N1CCN(CCCCCCC=C(C)C)CC1,-5.94%
12,N#CC1(c2ccccc2)CCc2c(sc3ncnc(Cl)c23)C1 (stereo not shown),-3.75%
13,CCOc1cc(NC(=O)c2ccccc2C)c(OCC)cc1N,1.92%
14,COc1ccc(-c2[nH]nc3nc(-c4ccc(C(F)(F)F)cc4)cc(C(=O)O)c23)cc1,-1.19%
15,CCC(CC)C(=O)Nc1ccc(NC(C)=O)cc1,-2.19%
16,CN(C)CCOC(=O)C12CC3CC(C)(CC(C)(C3)C1)C2,-4.24%
17,O=c1cc(CSc2nc(NCc3ccccc3)c3ccccc3n2)nc2ccc(Cl)cn12,-2.21%
18,NC(=O)Nc1ccccc1C(=O)Nc1ccc(F)cc1,-6.57%
19,O=C(O)C1CC(=O)N(Cc2ccc3c(c2)OCO3)C1 (stereo not shown),-2.58%
20,CC(=O)c1c(O)c2cccc3c2n(c1=O)C(C)CC3 (stereo not shown),5.66%
21,COc1ccc(CCC(=O)Nc2[nH]nc3nc4cc(OC)ccc4cc23)cc1,-3.94%
22,CCOc1ccc(-c2nc(C#N)c(NCCOC)o2)cc1,2%
23,Cc1cc(O)c(C2=NCCSC(c3ccc(Cl)cc3)C2)c(=O)o1 (stereo not shown),-0.415%
24,COc1cc(C(=O)N2c3ccc(F)cc3CCC2C)cc(OC)c1OC (stereo not shown),0.13%
25,O=[N+]([O-])c1ccc(CN2CCN(c3ccc4ccccc4n3)CC2)cc1,-4.96%
26,Cc1ccc2cc3cc(C(=O)NCCCOC(C)C)sc3nc2c1,7.07%

row,SMILES,% Inhibition @ 10 uM
1,CCOC(=O)c1c(C)oc2nc(C)nc(NCCCN(Cc3ccco3)C(C)CC)c12 (stereo not shown),6.68%
2,COc1cc(CNC2CCCCC2)ccc1O,0.777%
3,CCN(Cc1ccccc1)Cc1cccnc1,-4.14%
4,COCCCNC(=O)CSc1nc2c(sc3ccccc32)c(=O)n1CCCC(=O)NCCO,1.38%
5,O=C(O)c1ccc(N2C(=O)C3C4C=CC(CC4)C3C2=O)cc1 (stereo not shown),0.431%
6,Cc1c(C#N)c(/N=C/N(C)C)c(C(=O)c2ccccc2)n1-c1ccccc1,-1.48%
7,CCN(CC)c1ncnc2scc(-c3ccccc3)c12,-8.18%
8,CC(C)C[C@H]1C(=O)N[C@@H](CCCNC(=O)OC(C)(C)C)C(O)N1C(=O)OCc1ccccc1 (stereo partly shown),4.33%
9,COc1ccccc1NC(=O)COc1ccc(Cl)cc1Cl,-0.999%
10,CCNc1nc(OC)nc(Oc2ccc(=O)n(C)n2)n1,0.275%
11,N#CC1=C(N)N(c2ccccc2F)C2=C(C(=O)CCC2)C1c1ccccc1 (stereo not shown),4.08%
12,CCN(Cc1ccccc1)C(=O)Cn1nc(Cc2ccncc2)c2ccccc2c1=O,-6.52%
13,O=C(NCCSc1c[nH]c2ccccc12)c1ccc2c(c1)OCO2,-2.49%
14,COc1ccc(CN2CCSCC2)c2ccccc12,-2.34%
15,O=C(CCCc1ccccc1)Nc1cccc2ccccc12,1.33%
16,CCOC(=O)N1CCN(CCC(=O)c2ccc(Cl)cc2)CC1,6.78%
17,CC1=C(C(=O)OCCOc2ccccc2)C(c2c(Cl)cccc2Cl)CC(=O)N1 (stereo not shown),3.67%
18,Cc1ccc(CCNC(=O)C2CCCN(c3nnc(C)c4c(C)n(-c5ccc(C)cc5)nc34)C2)cc1 (stereo not shown),2.58%
19,c1ccc(C2NCCn3cccc32)cc1 (stereo not shown),4.57%
20,Cc1cc(OCC(=O)Nc2nc3ccccc3s2)cc(C)c1Cl,14.6%
21,O=C1NCC(=O)N2CCCC12 (stereo not shown),4.84%
22,O=C(NCc1ccccc1)N1CCC(N2CCCCC2)CC1,-2.28%
23,Fc1ccccc1C1CC(c2cccnc2)Nc2nc3ccccc3n21 (stereo not shown),-1.62%
24,Cc1cc(O)c2c(C)c(CC(=O)N3CCOCC3)c(=O)oc2c1,-2.57%
25,COc1ccccc1C(=O)n1nc(-c2ccccc2)nc1NCc1ccccc1,0.628%
26,COc1ccc(C(C)C)cc1S(=O)(=O)Nc1cccnc1,-6.02%

row,SMILES,% Inhibition @ 10 uM
1,c1cncc(CNc2ccc3ccccc3c2)c1,3.44%
2,CC1=C(c2ccc(C)c(C)c2)S(=O)(=O)NC1=O,0.0882%
3,O=C(Cc1ccccc1)Nc1ccc(Cc2ccc(NC(=O)Cc3ccccc3)c(C(=O)O)c2)cc1C(=O)O,9.29%
4,CC(C)Cn1cc(NC(=O)NCCCN(C)C2CCCCC2)c2ccccc2c1=O,-3.31%
5,CCc1nc(N2CCOCC2)c(C#N)c2c1COC(C)(C)C2,3.76%
6,CC(C)c1ccc(N(CC(=O)N2CCCCCC2)S(=O)(=O)c2ccccc2)cc1,0.475%
7,CCOc1ccc(N(C(C)C(=O)Nc2ccc(Br)c(C)c2)S(C)(=O)=O)cc1 (stereo not shown),3.06%
8,O=C(CCn1c(=O)c2cccn2c2cccnc21)N1CCCCCC1,-3.56%
9,CN(Cc1ccccc1)C(=O)Cn1cccc1C(=O)c1ccccc1,-5.89%
10,CCCNC(=O)C1CCCN(c2nc3c(C)cc(C)cc3s2)C1 (stereo not shown),1.8%
11,CN1C(C(=O)NCc2cccs2)=CC(c2ccc(F)cc2)=NS1(=O)=O,3.92%
12,Cc1cccc(N2C(=O)C3C(C2=O)C2C=CC3C23CC3c2ccccc2)c1 (stereo not shown),-2.15%
13,C=CCSc1nc(O)c(C(C)CC)c(O)n1 (stereo not shown),14.5%
14,O=C1C2C3C=CC(C2C(=O)N1CCCO)C1C2C(=O)N(CCCO)C(=O)C2C31 (stereo not shown),0.291%
15,COc1cc(CNCc2c(C(=O)O)n(C)c3ccccc23)cc(OC)c1OC,-1.6%
16,CCCCCOc1ccc(NC(=O)C2C3C=CC(C3)C2C(=O)O)cc1 (stereo not shown),-3.1%
17,COc1ccc(C2(C(=O)NC3CCCCC3)CCCC2)cc1OC,-6.43%
18,CC(C(=O)Nc1ccccn1)N1Cc2ccccc2C1=O (stereo not shown),2.87%
19,C=CCN1/C(=N\C(=O)C(C)(C)C)SC2CS(=O)(=O)CC21 (stereo not shown),-2.92%
20,O=C(COc1ccc(S(=O)(=O)NC2CCCC2)cc1)NCc1ccc(Cl)cc1,-1.61%
21,CSc1ccc(CCNC(=O)C2CCCN(S(=O)(=O)N3CCOCC3)C2)cc1 (stereo not shown),3.35%
22,CCN1CCCC1CNC(=O)CSc1c2c(nc3ccc(Cl)cc13)CCCC2 (stereo not shown),-4.96%
23,CCOc1cc(/C=C2\C(=N)N3N=C(S(C)(=O)=O)SC3=NC2=O)ccc1OC(C)c1ccccc1 (stereo not shown),3.48%
24,Cc1cc(/C=C2\NC(=O)NC2=O)c(C)n1-c1ccc(OCc2ccccc2Cl)cc1,13.9%
25,CC(/C=C(\O)c1cccnc1)=N\c1ccc(Br)c(Cl)c1,-0.68%
26,CCc1[nH]nc2c1C(c1ccc(Cl)c(Cl)c1)C(C#N)=C(N)O2 (stereo not shown),-5.34%

row,SMILES,% Inhibition @ 10 uM
1,Cc1ccc2c(c1)c1c(n2C)C(O)CCC1 (stereo not shown),-3.48%
2,Cc1ccc(NC(=O)c2cccs2)c(C)c1,-5.84%
3,CNCCOC(c1ccc(F)cc1)c1ccccc1F (stereo not shown),0.343%
4,O=C(O)C1Cc2c([nH]c3ccccc23)C(c2ccccc2O)N1 (stereo not shown),-1.45%
5,O=C(NCCC1=CCCCC1)C1CCN(c2ccc(-c3cccs3)nn2)CC1,3.49%
6,CSC1=C(C#N)C(c2ccccc2)C(C(C)=O)=C(C)N1 (stereo not shown),4.66%
7,O=C(CSc1nc(O)cc(O)n1)C12CC3CC(CC(C3)C1)C2,2.58%
8,COc1cc(C)nc(NC(=O)NS(=O)(=O)c2c(C)cc(Cl)nc2Cl)n1,0.503%
9,CN(C)CCN(Cc1ccccc1)Cc1cccc(Cl)c1Cl,1.57%
10,C=C(Br)Cn1c(CCCNC(=O)c2ccco2)nc2ccccc21,-1.22%
11,Cc1ccc(NC(=O)CN(c2cccc(C)c2C)S(C)(=O)=O)cc1Cl,3.8%
12,CCOc1ccc2oc(-c3ccccc3)c(C(=O)O)c2c1,1.37%
13,CCCC(=O)Nc1ccc(C(=O)Nc2cc(C(F)(F)F)ccc2Cl)cc1,-0.661%
14,Cc1cc(C)c(NC(=O)Nc2ccccc2)c(Cl)c1,-5.92%
15,CCN(CC)CC(=O)Nc1c(C)cc(C)cc1C,-0.833%
16,CC(=O)c1c(C)[nH]c(C(=O)N2CCCCCC2)c1C,-2.29%
17,COc1cc2c(cc1OC)C(c1ccncc1)NCC2 (stereo not shown),3.31%
18,COc1ccc2[nH]c3c(c2c1)CCn1c-3nc2sc3c(c2c1=N)CCCC3,-2.51%
19,CCN(CC)C(=O)CCCC(=O)c1c[nH]c2ccccc12,-5.97%
20,COc1ccc(C2=N/C(=C/c3c(OC)ccc4ccccc34)C(=O)O2)cc1Br,3.58%
21,O=C(COc1ccc(S(=O)(=O)NC2CCCC2)cc1)NCc1cccnc1,-1.61%
22,CCOC(=O)c1c(C)nc2c(c1-c1ccccc1)C(=O)CC(C)(C)C2,3.7%
23,CC1=C(C(=O)OCC2CCCO2)C(c2c(F)cccc2Cl)CC(=O)N1 (stereo not shown),-3.51%
24,CC(C)C[C@H](NC(=O)OCc1ccc[n+](CC(N)=O)c1)C(=O)NCC#N,-0.778%
25,O=C(NCc1cccnc1)/C(=C\c1cccc(Oc2ccccc2)c1)S(=O)(=O)c1ccccc1,0.487%
